According to the RNAGym collection of RNA variant scans (doi:10.1093/nar/gkz1192):
Read counts are not given, so values of variants with three or more changes are uncertain.

B1: CPEB3 Ribozyme (parent)
chain: UAACAGGGGGCCACAGCAGAAGCGUUCACGUCGCAGCCCCUGUCAGAUUCUGGUGAAUCUGCGAAUUCUGCUGUAUAUCUC

Variants of: B1
Assay: self-cleavage, relative activity (ratio to wild type); higher = more cleavage; in vitro, sequencing
Outline: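 Barcoded CPEB3 ribozyme mutants, produced by rounds of error-prone PCR, self-cleaved while being transcribed with T7 RNA polymerase for 5 hours at 37°C and during a subsequent 15 min DNase I step before EDTA was added. Sequencing of template-switched cDNA on Illumina gave cleaved and total reads, and DNA sequencing assigned barcodes to variants. Each variant's relative activity is its cleaved/total read fraction divided by the unmutated ribozyme's fraction, averaged across three batches. A variant needed a minimum of 5 reads.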

Variant	self-cleavage
UAACAGGGGGCCACAGCAGAAGCGCUCACGUCGCCGCCCCUGUCAGAUACUGGUGAAUCUGCGAAUUCUGCUGUAUAUCUC [U25C A35C U49A]	0.23
UAACAGGGGGCCACAGCAGAAGCGCUCACGUCGCCGCCCCUGUCAGAUUCUGGUGAAACUGCGUAUUCUGCUGUAUAUCUC [U25C A35C U58A A64U]	0.19
UAACAGGGGGCCACAGCAGAAGCGCUCACGUCGCGGCCCCUGUCCGACUCUGGUGAAUCUGCGAAUUCUGCUGUAUAUCUC [U25C A35G A45C U48C]	0.07
UAACAGGGGGCCACAGCAGAAGCGCUCACGUCGCGGCCCCUGUCAGGUUCUGGUGAAUCUGCGAAUUCUGCCGUAUAUCUC [U25C A35G A47G U72C]	0.23
UAACAGGGGGCCACAGCAGAAGCGCUCACGUCGCGGCCCCUGUCAGAUUCUGGUGGAUCUGCGAAUUCUGCUGUAUGUCUC [U25C A35G A56G A77G]	0.33
UAACAGGGGGCCACAGCAGAAGCGCUCACGUCGCGGCCCCUGUCAGAUUCUGGUGAGUCUGCGAGUACUGCUGUAUCUCUC [U25C A35G A57G A65G U67A A77C]	0.04
UAACAGGGGGCCACAGCAGAAGCGCUCACGUCGCGGCCCCUGUCAGAUUCUGGUGAAUCUGCGGAUUCUGCUGUAUAUCUC [U25C A35G A64G]	0.23
UAACAGGGGGCCACAGCAGAAGCGCUCACGUCGCGGCCCCUGUCAGAUUCUGGUGAAUCUGCGAGUUCUGCUGUAUAUCUC [U25C A35G A65G]	0.15
UAACAGGGGGCCACAGCAGAAGCGCUCACGUCGCGGACCCUGUCAGAUUCUGGUGAAUCUGCGAUUUCUGCCGUAUAUCUC [U25C A35G C37A A65U U72C]	0.21
UAACAGGGGGCCACAGCAGAAGCGCUCACGUCGCGGCCCUUGUCAGAUUCUGGCGAAUCUGCGUAUUCUGCUGUAUAUCUC [U25C A35G C40U U54C A64U]	0.42
UAACAGGGGGCCACAGCAGAAGCGCUCACGUCGCGACCCCUGUCAGAUUCUGGUGAACCUGCGAAUUCUGCUGUAUAUCUC [U25C A35G G36A U58C]	0.17
UAACAGGGGGCCACAGCAGAAGCGCUCACGUCGCGGCCCCUGUCAAAUUCUGGUGGAUCUGCGAAUUCUGCUGUAUAUCUC [U25C A35G G46A A56G]	0.08
UAACAGGGGGCCACAGCAGAAGCGCUCACGUCGCGGCCCCUGUCAAAUUCUAGUGAAUCUGCGAAUUCUGCAGUAUAUCUC [U25C A35G G46A G52A U72A]	0.05
UAACAGGGGGCCACAGCAGAAGCGCUCACGUCGCGGCCCCAGUCGGAUUCUGGUGAAUCUGCGAAUUCUGCUGUAUAUCUC [U25C A35G U41A A45G]	0.38
UAACAGGGGGCCACAGCAGAAGCGCUCACGUCGCGGCCCCAGUCGGAUUCUGGUGAAUCUGCGAAUCCAGCUGUAUAUCUC [U25C A35G U41A A45G U67C U69A]	0.37
UAACAGGGGGCCACAGCAGAAGCGCUCACGUCGCGGCCCCAGUCGGAUUCUGGUGAAUCUGCGAAUUCUGCUGUAAAUCUC [U25C A35G U41A A45G U76A]	0.17
UAACAGGGGGCCACAGCAGAAGCGCUCACGUCGCGGCCCCAGUCAGAUUCUGGUGAGUCUGCGAACUCUGCUGUAUAUCUC [U25C A35G U41A A57G U66C]	0.1

Variant	self-cleavage
UAACAGGGGGCCACAGCAGAAGCGCUCACGUCGCGGCCCCAGUUAGAUUCUGCUGAGUCUGCGAAUUCUGCUGUAUAUCUC [U25C A35G U41A C44U G53C A57G]	0.21
UAACAGGGGGCCACAGCAGAAGCGCUCACGUCGCGGCCCCAGUCAGAUUCUGGCGAAUCUGCGAAUUCUGCUGUAUAUCUC [U25C A35G U41A U54C]	0.1
UAACAGGGGGCCACAGCAGAAGCGCUCACGUCGCGGCCCCCGUCCGAUUCUGGUGAAUCUGCGAAUUCUGCUGUAUACCUC [U25C A35G U41C A45C U78C]	0.1
UAACAGGGGGCCACAGCAGAAGCGCUCACGUCGCGGCCCCCGUCAGAUUCUGGUGAAUCAGCGAAUUCUGCUGUAUAUCUC [U25C A35G U41C U60A]	0.19
UAACAGGGGGCCACAGCAGAAGCGCUCACGUCGCGGCCCCUGACAGAUUCUGGUGAAUCUGCGAAUUCUGCUGCAUAUCCC [U25C A35G U43A U74C U80C]	0.24
UAACAGGGGGCCACAGCAGAAGCGCUCACGUCGCGGCCCCUGCCAGAUUCCGGUGAAUCCGCGAAUUCUGCUGUAUAUCUC [U25C A35G U43C U51C U60C]	0.05
UAACAGGGGGCCACAGCAGAAGCGCUCACGUCGCGGCCCCUGCCAGAUUCUGGUGAACUUGCGAAUUCUGCUGUAUAUCUC [U25C A35G U43C U58C C59U]	0.11
UAACAGGGGGCCACAGCAGAAGCGCUCACGUCGCGGCCCCUGCCAGAUUCUGGUGAAUCUGCGAAUUCUGCUGUAUAACUC [U25C A35G U43C U78A]	0.24
UAACAGGGGGCCACAGCAGAAGCGCUCACGUCGCGGCCCCUGUCAGACUCUGGUGAAUCUGCGAAUUCUGCUGUAUAUCUC [U25C A35G U48C]	0.39
UAACAGGGGGCCACAGCAGAAGCGCUCACGUCGCGGCCCCUGUCAGAUACUGGUGGAUCUGCGAAUUCUGCUGUAUAUCUC [U25C A35G U49A A56G]	0.47
UAACAGGGGGCCACAGCAGAAGCGCUCACGUCGCGGCCCCUGUCAGAUACUGAUGAAUCUGCAAAUUCUGCUGUAUAUCUC [U25C A35G U49A G53A G63A]	0.11
UAACAGGGGGCCACAGCAGAAGCGCUCACGUCGCGGCCCCUGUCAGAUCCUGGUGAAUCUGCGAAUUCUGCUGUAUACCUC [U25C A35G U49C U78C]	0.1
UAACAGGGGGCCACAGCAGAAGCGCUCACGUCGCGGCCCCUGUCAGAUUCAGGUGAAUCUGCGACUUCUGCUGUAUAUCUC [U25C A35G U51A A65C]	0.24
UAACAGGGGGCCACAGCAGAAGCGCUCACGUCGCGGCCCCUGUCAGAUUCCGGUGAAUCUGCGAAUUCUGCUGUAUAUCUC [U25C A35G U51C]	0.27
UAACAGGGGGCCACAGCAGAAGCGCUCACGUCGCGGCCCCUGUCAGAUUCGGGUGAAUCUGCGAAUUCUGCUGUAUAUCUC [U25C A35G U51G]	0.35
UAACAGGGGGCCACAGCAGAAGCGCUCACGUCGCGGCCCCUGUCAGAUUCUGGAGAAUCUGCGAAUUCUGCUGUAUAUCUC [U25C A35G U54A]	0.42
UAACAGGGGGCCACAGCAGAAGCGCUCACGUCGCUGCCCCUGUCUGAUUCUGGUGGAUCUGCGAAUUCUGCUGUAUAUCUC [U25C A35U A45U A56G]	0.19
